Measured values published in patent publication US20140187612A1 (INTER K, published 2014).

Tests used:
[1] = target: T1, integrin β5 subunit (human); experiment: integrin immunoprecipitation (mAb P1F6) from SW480 β6 transfectant lysates, Western blot with anti-ERK mAb SC-1647
T1 construct: whole, on cells; Immunoprecipitated from cell lysates
T1 sequence (looked up): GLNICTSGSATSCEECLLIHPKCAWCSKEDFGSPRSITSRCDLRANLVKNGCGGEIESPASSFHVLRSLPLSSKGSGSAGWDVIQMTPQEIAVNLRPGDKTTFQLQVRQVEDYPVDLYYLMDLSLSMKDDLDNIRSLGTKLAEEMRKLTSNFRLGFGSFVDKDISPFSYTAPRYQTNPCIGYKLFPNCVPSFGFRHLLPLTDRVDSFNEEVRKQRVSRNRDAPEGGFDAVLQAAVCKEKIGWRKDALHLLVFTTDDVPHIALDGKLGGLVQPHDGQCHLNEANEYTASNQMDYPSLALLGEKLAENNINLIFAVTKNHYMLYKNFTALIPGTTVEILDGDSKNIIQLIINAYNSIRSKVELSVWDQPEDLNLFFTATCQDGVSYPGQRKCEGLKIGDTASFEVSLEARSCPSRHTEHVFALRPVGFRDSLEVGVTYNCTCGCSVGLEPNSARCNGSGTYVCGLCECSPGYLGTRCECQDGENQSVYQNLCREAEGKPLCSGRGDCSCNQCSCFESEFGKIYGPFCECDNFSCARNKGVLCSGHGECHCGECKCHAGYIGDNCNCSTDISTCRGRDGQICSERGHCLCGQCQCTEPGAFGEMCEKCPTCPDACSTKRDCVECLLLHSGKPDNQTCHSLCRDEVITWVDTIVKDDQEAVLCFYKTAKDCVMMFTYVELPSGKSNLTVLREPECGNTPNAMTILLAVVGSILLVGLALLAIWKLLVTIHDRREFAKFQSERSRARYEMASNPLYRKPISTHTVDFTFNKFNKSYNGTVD

[2] = target: T2, integrin β1 subunit; experiment: integrin immunoprecipitation (mAb QE2E5) from SW480 β6 transfectant lysates, Western blot with anti-ERK mAb SC-1647
T2 construct: whole, on cells; Immunoprecipitated from cell lysates

B1: ERK (endogenous extracellular signal-regulated kinase in cell lysates, band migrating at the position of ERK2) (enzyme)
chain: not shown
notes: also called β6-associated ERK
Does B1 bind [1]?
Result: no binding

Does B1 bind [2]?
Result: no binding
